Measurements from PubChem BioAssay AID686978 (National Center for Advancing Translational Sciences (NCATS), 2013).
“And” between values parts separate entries of the source, which are not always exact repeats. Equal entries are not always repeated. In all, about 420,000 compounds went through this assay and about 64,000 (15%) were called active. Inconclusive results, whose numbers are uncertain, are shown with a selection of clear calls. Calls come from the whole dose curve; as a rule, active = well fitted inhibition curve with a large enough effect; inconclusive = small, poorly fitted or top-dose-only effect; inactive = flat fitted curve, though single readings scatter. Potencies beside an inconclusive call are fits to weak or partial responses and may not hold up.

Test: qHTS for Inhibitors of human tyrosyl-DNA phosphodiesterase 1 (TDP1): qHTS in cells in absence of CPT; note: nearly all actives have a fitted effect of over 55% in size
Settings: DT40 Tdp1-/- hTDP1 cells, no CPT, ATP luminescence, 48 h; activity change, negative = growth inhibition: at 46.2 µM (top of the series) unless noted
Procedure, shortened: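 Stably hTDP1-transfected Tdp1-null chicken DT40 cells were treated with library compounds minus camptothecin and grown for at least 48 hr at 37 °C, after which cellular ATP was quantified by luminescence.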
% is set by controls: 0 for no effect and ±100 for the full control effect; potency is the fitted concentration of half-maximal effect; tags give direction and shape of the fitted curve.

Row | Structure (SMILES) | Potency | activity change, negative = growth inhibition
1 | CCOc1ccccc1NC(=O)CSc1nc(N)c(C#N)cc1C#N | inconclusive: 20.6 µM [inhibitor, single point] | –
2 | CCc1nc2c(OCc3ccc(C(F)(F)F)cc3)cccn2c1N(C)C(=O)c1ccncc1 | active: 16.4 µM | –
3 | Cc1cccc(C)c1NC(=O)C1c2cccc[n+]2CC(=O)N1Cc1cccs1 (stereo not given) | inconclusive: 18.4 µM [inhibitor, single point] | –
4 | CN(Cc1ccccc1)C(=O)c1ccc2c(c1)OCCO2 | inconclusive: 25.9 µM [inhibitor, single point] | –
5 | COc1ccc(Cl)cc1NC(=O)CCS(=O)(=O)c1cc2c(cc1C)NC(=O)CO2 | inconclusive: 18.4 µM [inhibitor, single point] | –
6 | O=C(C[C@@H]1C[C@@H]2c3cc(NS(=O)(=O)c4ccc(F)cc4)ccc3O[C@@H]2[C@H](CO)O1)N1CCc2ccccc2C1 | – | inactive: -21.6%
7 | CC1(Cc2cccc(C(F)(F)F)c2)C(=O)Nc2c(Cl)ccc(Cl)c21 (stereo not given) | inconclusive: 20.6 µM [inhibitor, partial curve] | –
8 | Cc1cccc[n+]1CC(=O)c1ccc([N+](=O)[O-])cc1 | active: 16.4 µM | –
9 | COc1ccc(CCNC(=O)COC(=O)/C=C/c2cccs2)cc1OC | – | inactive: -1.02%
10 | CCSc1nnc2ccc(-c3ccc(OC)c(OC)c3)nn12 | active: 23.1 µM | –
11 | COc1ccc(S(=O)(=O)Nc2ccc(C)cc2)cc1N(C)S(=O)(=O)c1ccc(Cl)cc1 | active: 18.4 µM | –
12 | Cn1c(Cn2nnc3ccccc32)nnc1SCC(=O)N1c2ccccc2Sc2ccccc21 | active: 16.4 µM | –
13 | CCc1ccccc1N(C)C(=O)Cc1c(C(=O)O)c(C)cn1C | – | inactive: -11.8%
14 | Nc1nc(NCCc2ccccc2)nc(NCCO)c1[N+](=O)[O-] | – | inactive: -21%
15 | Cc1ccc(S(=O)(=O)N2CCCN(C)c3nc4ccccc4nc32)cc1 | active: 16.4 µM | –
16 | Cc1nn(-c2ccccc2)c(OC(=O)C(C)C)c1Sc1ccccc1 | inconclusive: 8.2 µM [inhibitor, partial curve] | –
17 | CN(c1nc2ccccc2n2c(-c3ccco3)nnc12)S(=O)(=O)c1ccccc1 | – | inactive: -12.7%
18 | COc1cccc(CC2(CO)CCN(Cc3ccc4cccc(F)c4n3)CC2)c1 | inconclusive: 16.4 µM [inhibitor, single point] | –
19 | Cc1ccc(NC(=O)Cc2ccc(-n3c(C)nc4cccnc43)cc2)cc1C | active: 18.4 µM | –
20 | CC1(C)CC2CC(C)(CN2S(=O)(=O)c2cccc(C(=O)OCC(N)=O)c2)C1 (stereo not given) | inconclusive: 32.6 µM [inhibitor, partial curve] | –
21 | Cc1cc(C)c(NC(=O)C(C)n2nc(-c3ccc(C)c(C)c3)ccc2=O)c(C)c1 (stereo not given) | inconclusive: 29.1 µM [inhibitor, single point] | –
22 | Cc1ccc(C(O)CN2C3=NCCCN3c3ccccc32)cc1 (stereo not given) | inconclusive: 32.6 µM [inhibitor, single point] | –
23 | Cc1c(C)n2c(SCC(=O)N3CCCCC3)nnc2[nH]c1=O | – | inactive: -11.5%
24 | CCOc1ccc(/C=N/NC(=O)c2cc3c(OC)cc(OC)c(OC)c3[nH]2)cc1 | inconclusive: 23.1 µM [inhibitor, single point] | –

Row | Structure (SMILES) | Potency | activity change, negative = growth inhibition
25 | CN1CCN(Cc2ccc(Sc3ccc(Cl)cc3)c([N+](=O)[O-])c2)CC1 | active: 14.6 µM | –
26 | Cc1ccc(CSc2nnc(SCC(=O)N/N=C/c3ccc(C(=O)O)cc3)s2)cc1 | inconclusive: 16.4 µM [inhibitor, single point] | –
27 | Fc1ccccc1N=C1NN=C(c2ccccc2)CS1 | inconclusive: 29.1 µM [inhibitor, single point] | –
28 | CCCCOc1ccc(S(=O)(=O)Nc2ccc(-c3ccc(N4CCCCCC4)nn3)cc2)cc1 | inconclusive: 29.1 µM [inhibitor, single point] | –
29 | COC(=O)c1cccc(-n2c(CCC(=O)O)ccc2-c2ccc(OC)cc2)c1 | active: 14.6 µM | –
30 | CCOc1ccc(S(=O)(=O)N2CCCCC2)cc1NC(=O)c1cccnc1OCC | inconclusive: 8.2 µM [inhibitor, partial curve] | –
31 | C/C(=N\NC(=O)c1nnn(-c2nonc2N)c1COc1ccc(F)cc1)c1ccc(Cl)cc1 | – | inactive: -28%
32 | CCOC(=O)c1cc(-c2ccccc2)n(CCCC(=O)Nc2ccc(C(C)C)cc2)c1C | active: 20.6 µM | –
33 | NS(=O)(=O)c1ccc(CCNC(=O)c2ccc(CS(=O)(=O)c3ccc(Br)cc3)o2)cc1 | – | inactive: -12.3%
34 | Cc1ccc(-c2cc(C(F)(F)F)n3nc(C(=O)N4CCN5CCCC5C4)cc3n2)cc1 (stereo not given) | inconclusive: 18.4 µM [inhibitor, single point] | –
35 | O=C(COc1ccc2oc3c(c2c1)CCCC3)Nc1ccc(Br)cc1 | inconclusive: 11.6 µM [inhibitor, partial curve] | –
36 | COc1ccc2c(c1)CC/C(=C/c1cc(OC)c(OC)c(OC)c1)C2=O | active: 14.6 µM | –
37 | CC1CC2(C)C(=CC1=O)CCC1C2C(O)CC2(C)C1CCC2(O)C(=O)CO (stereo not given) | inconclusive: 20.6 µM [inhibitor, single point] | –
38 | Cc1nc2cnc(N(C)C)nc2n(C[C@H]2CCCO2)c1=O | – | inconclusive: -30.2% [inhibitor]
39 | CC1CCC2(CC1)NC(=O)N(CC(=O)Nc1cc(S(=O)(=O)N3CCCC3)ccc1Cl)C2=O (stereo not given) | inconclusive: 18.4 µM [inhibitor, single point] | –
40 | O=[N+]([O-])c1ccc(N2CCN(c3ccccn3)CC2)c(Cl)c1 | inconclusive: 18.4 µM [inhibitor, single point] | –
41 | O=C(Nc1cccc(S(=O)(=O)N2CCCCC2)c1)c1cc2ccccc2o1 | inconclusive: 23.1 µM [inhibitor, single point] | –
42 | O=C(NCC1Cc2cccc(-c3ccccn3)c2O1)c1cnn2cccnc12 (stereo not given) | – | inactive: 2.49%
43 | COc1ccc(CCn2c(=S)[nH]c3ccc(N4CCOCC4)cc3c2=O)cc1OC | inconclusive: 23.1 µM [inhibitor, single point] | –
44 | CN(C)C(=O)N1CCN(c2nc(-c3ccccc3)cs2)CC1 | inconclusive: 20.6 µM [inhibitor, partial curve] | –
45 | Cc1ccccc1C(=O)Nc1ccccc1NC(=O)c1ccccc1C | – | inactive: -28.3%
46 | Cc1cc(C=O)c(C)n1-c1ccc(NC2CCCC2)c([N+](=O)[O-])c1 | active: 18.4 µM | –
47 | CC1CCN(c2ccc(-c3cccc(NC(=O)c4ccco4)c3)nn2)CC1 | inconclusive: 25.9 µM [inhibitor, single point] | –
48 | CC(C)C1C(=O)N(Cc2cn(CCC3OCCO3)nn2)CCS(=O)(=O)N1Cc1ccc(-c2ccc(F)cc2)cc1 (stereo not given) | inconclusive: 20.6 µM [inhibitor, single point] | –

Row | Structure (SMILES) | Potency | activity change, negative = growth inhibition
49 | Cc1cccc2c1CCCC2=O | – | inactive: -11.3%
50 | c1ccc(C2=NNC(=NCc3ccc4c(c3)OCO4)SC2)cc1 | inconclusive: 23.1 µM [inhibitor, partial curve] | –
51 | Cc1ccc(N=C2SCCCN2C(=O)c2cccc(N3C(=O)CCC3=O)c2)cc1Cl | – | inactive: -7.58%
52 | CCOc1cc(/C=C2\C(=O)ON=C2c2ccccc2)ccc1OC | active: 18.4 µM | –
53 | Nc1nnc(CC(=O)N/N=C/c2cc([N+](=O)[O-])cc(Br)c2O)s1 | – | inactive: 0.708%
54 | CC(C)CN(CC(C)C)S(=O)(=O)N1CCC(C(=O)N2CCc3ccccc3C2)CC1 | inconclusive: 18.4 µM [inhibitor, single point] | –
55 | Cc1ccc(-c2cc3ccccc3nc2N2CCOCC2)cc1 | inconclusive: 16.4 µM [inhibitor, single point] | –
56 | CCCCOc1ccc(-c2nn(-c3ccccc3)cc2C2NC(=O)NC(C)=C2C(=O)OC)cc1 (stereo not given) | – | inactive: -3.93%
57 | COc1ccc(CNC(=O)CN2C(=O)NC(Cc3ccccc3)(c3ccccc3)C2=O)cc1OC (stereo not given) | inconclusive: 20.6 µM [inhibitor, single point] | –
58 | CCOC(=O)[C@]12CCCC=C1N(CCC1=CCCCC1)C(=O)[C@H](CC(=O)N1CCOCC1)C2 | active: 16.4 µM | –
59 | O=C(/C=C/c1ccccc1)Nc1nnc(SCC(=O)c2ccc3ccccc3c2)s1 | – | inconclusive: -28.7% [inhibitor]
60 | COc1ccccc1CNC(=O)C1CCCN(c2nc3ccccc3n3cccc23)C1 (stereo not given) | active: 13 µM | –
61 | C=CCN(CC=C)Cc1cc(=O)oc2ccccc12 | inconclusive: 20.6 µM [inhibitor, single point] | –
62 | Cc1ccccc1CCN1CCCC(CN(C)C(=O)C(=O)c2ccco2)C1 (stereo not given) | – | inactive: -20.1%
63 | CC(C)n1c(=O)c2ccccc2n1C(=O)c1ccccc1 | inconclusive: 20.6 µM [inhibitor, single point] | –
64 | COc1ccc(NC(=S)NC(=O)C2CCCCC2)cc1 | – | inactive: 10.6%
65 | Cc1cccc(OCCCC(=O)Nc2nc3ccccc3[nH]2)c1 | inconclusive: 16.4 µM [inhibitor, single point] | –
66 | CCOC(=O)O[C@]1(C(=O)COC(=O)CC)CC[C@H]2[C@@H]3CCC4=CC(=O)C=C[C@]4(C)[C@H]3[C@@H](O)C[C@@]21C | inactive and inconclusive: 16.1 µM [inhibitor, partial curve, poor fit] | –
67 | COc1cc(C(CC(=O)NCc2ccc(F)cc2)N2Cc3ccccc3C2=O)cc(OC)c1OC (stereo not given) | active: 16.4 µM | –
68 | O=C(CCCn1c(SCc2ccccc2F)nc2ccccc2c1=O)NCC1CCCO1 (stereo not given) | inconclusive: 29.1 µM [inhibitor, single point] | –
69 | Cc1ccc([C@H]2C(C(=O)O)=CC[C@@H](c3ccc(Cl)cc3)N2S(=O)(=O)c2ccc(C)cc2)cc1 | inconclusive: 11.6 µM [inhibitor, partial curve] | –
70 | CCOc1ccc(S(=O)(=O)Nc2cccc(C(=O)NCC3CCCO3)c2)cc1 (stereo not given) | inconclusive: 29.1 µM [inhibitor, single point] | –
